Experimental data published in PubChem BioAssay AID686978 (National Center for Advancing Translational Sciences (NCATS), 2013).
Values joined by “and” are separate entries in the source; they are usually repeats but may differ in a detail not shown here. Equal values may be shown once. About 64,000 (15%) of roughly 420,000 compounds were called active. The shares of active, inactive and inconclusive entries below differ from those in the screen. Calls follow the shape of the dose curve; as a rule, active = well fitted inhibition curve with a large enough effect; inconclusive = small, poorly fitted or top-dose-only effect; inactive = flat fitted curve, though single readings scatter. Where the call is inconclusive, the potency comes from a doubtful curve fit.
% is scaled to controls: 0 for no effect and ±100 for the full control effect; potency is read from the fitted curve at half-maximal effect; tags tell the direction and shape of the fitted curve.

Test: qHTS for Inhibitors of human tyrosyl-DNA phosphodiesterase 1 (TDP1): qHTS in cells in absence of CPT; also: nearly all actives have a fitted effect of over 55% in size
Conditions: DT40 Tdp1-/- hTDP1 cells, no CPT, ATP luminescence, 48 h; activity change, negative = growth inhibition: at 46.2 µM (top of the series) unless noted
Method in brief: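 Chicken DT40 Tdp1-/- cells complemented with human TDP1, screened without camptothecin (DMSO vehicle only), 400 cells/well. Compounds pin-transferred, cells incubated at 37 °C for at least 48 hr. Growth read as ATP-dependent luminescence (CellTiter-Glo, 30 min at RT).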
In the case of `CC(C)Cc1n[nH]c(=O)c2c1nnn2Cc1ccccc1F`, the “activity change, negative = growth inhibition” value is reported as inactive: -6.56%.
For `O=C(O)c1cccc(N2C(=O)c3cc([N+](=O)[O-])cc4cc([N+](=O)[O-])cc(c34)C2=O)c1`, the Potency was inconclusive: 29.1 µM [inhibitor, single point].
In the case of `Cc1ccc(-c2csc(N(CCCN3CCOCC3)C(=O)c3ccco3)n2)cc1`, the Potency is reported as active: 20.6 µM.
For `CCCNC(=O)c1cc(C2CCCCN2S(=O)(=O)c2ccc(F)cc2F)on1` (stereo not given), the “activity change, negative = growth inhibition” value was inactive: -27.2%.
With `COC(=O)C1N[C@@H]([C@@H](NC(=O)COc2ccccc2)C(=O)NCc2ccc(OC)cc2)SC1(C)C` (stereo not given in full) the Potency was “inactive and inconclusive: 17.8 µM [inhibitor, single point]”.
With `O=C1NC(=O)c2c(Br)c(Br)c(Br)c(Br)c21` the “activity change, negative = growth inhibition” value was inactive: -16.9%.
In the case of `Cc1nc(N(C)Cc2ccccc2)c2c(C)c(C)sc2n1`, the Potency is reported as inconclusive: 14.6 µM [inhibitor, partial curve].
For `COc1cc2c(cc1OC)C(COc1ccc3c(C)cc(=O)oc3c1)N(C(=O)c1ccc(C)cc1)CC2` (stereo not given), the Potency was inconclusive: 20.6 µM [inhibitor, single point].
For `Cc1ccc(C)c(NC(=O)CSc2nc(=O)n(CCN3CCOCC3)c3c2CCC3)c1`, the “activity change, negative = growth inhibition” value was inactive: 0.324%.
In the case of `CCC(=O)N1c2ccccc2CC1C(=O)NCCCN1CCN(c2cccc(Cl)c2)CC1` (stereo not given), the Potency is reported as inconclusive: 29.1 µM [inhibitor, single point].
With `O=C1c2cccc3cccc(c23)C(=O)N1c1ccccc1Cl` the Potency was inconclusive: 20.6 µM [inhibitor, partial curve].
With `Brc1cccc(-c2nc3ccc(Br)cn3c2Cc2ccccc2)c1` the Potency was inconclusive: 23.1 µM [inhibitor, single point].
In the case of `COc1ccc(C2c3c(n(C)c4ccccc34)C(=O)N2CC(=O)Nc2c(C)cc(C)cc2C)cc1` (stereo not given), the Potency is reported as inconclusive: 29.1 µM [inhibitor, single point].
In the case of `Cc1ccc(C(C)C)c(Oc2cnccn2)c1`, the “activity change, negative = growth inhibition” value is reported as inactive: 18.3%.
For `O=C(c1ccc(C(F)(F)F)cc1)C1CCCN(C(=O)CCn2cncn2)C1` (stereo not given), the “activity change, negative = growth inhibition” value was inactive: -11.1%.
With `CCC1CCC(C(=O)NNC(=O)c2cc(-c3ccco3)[nH]n2)CC1` (stereo not given) the Potency was inconclusive: 29.1 µM [inhibitor, single point].
For `CCOC(=O)N1CCC(NC(=O)c2ccc3c(c2)N(Cc2ccccc2)C(=O)c2ccccc2S3(=O)=O)CC1`, the Potency was inconclusive: 20.6 µM [inhibitor, single point].
With `COc1ccc(Br)c2c1-c1nc(NC(=O)c3ccc(F)cc3)sc1C2` the Potency was inconclusive: 20.6 µM [inhibitor, single point].
With `COc1ccc(CCN2C(=O)C=CC2=O)cc1OC` the Potency was active: 1.3 µM.
In the case of `N#CCC(=O)NC(=O)NCC1CC1`, the “activity change, negative = growth inhibition” value is reported as inactive: -5.15%.
With `CC1CN(C2CCCCC2)C(=S)N(c2ccccc2)C1=O` (stereo not given) the “activity change, negative = growth inhibition” value was inactive: -7.47%.
In the case of `CCOc1ccccc1CNC(=O)C(CC)n1nc(C)c2c(C)n(-c3ccccc3)nc2c1=O` (stereo not given), the Potency is reported as inconclusive: 25.9 µM [inhibitor, single point].
In the case of `O=C(CN1CCN(c2ccccc2O)CC1)NC(=O)NCc1ccccc1`, the Potency is reported as inconclusive: 23.1 µM [inhibitor, single point].
With `Cc1cccc(Nc2ncnc3onc(-c4cccc(Cl)c4)c23)c1` the Potency was inconclusive: 29.1 µM [inhibitor, single point].
In the case of `O=C(CCCOc1ccc(Cl)cc1Cl)Nc1cccnc1`, the Potency is reported as inconclusive: 29.1 µM [inhibitor, single point].
For `O=C(Nc1ccccc1)ON=C1c2ccccc2-c2ccccc21`, the Potency was inconclusive: 7.31 µM [inhibitor, partial curve].
With `Cn1c(NNC(=O)C(c2ccccc2)c2ccccc2)cc(=O)n(C)c1=O` the “activity change, negative = growth inhibition” value was inactive: -1.02%.
For `COc1cccc(C(=O)N2CCCN(C)CC2)c1OC`, the “activity change, negative = growth inhibition” value was inactive: -10.3%.
In the case of `O=C(Nc1ccc(Cl)cc1)c1ccc2oc(=O)n(Cc3ccccc3)c2c1`, the Potency is reported as inconclusive: 29.1 µM [inhibitor, single point].
For `Cc1cc2c(c(-c3cnccn3)c1)OC(CNC(=O)c1ccccc1C(F)(F)F)C2` (stereo not given), the “activity change, negative = growth inhibition” value was inactive: -9.95%.
For `COc1ccc2cc(CN(Cc3cccnc3)S(=O)(=O)c3ccccc3)c(=O)[nH]c2c1`, the Potency was inconclusive: 10.3 µM [inhibitor, partial curve, poor fit].
In the case of `CCCCN1C(=O)C(=O)NC[C@@H]1CCCCN`, the “activity change, negative = growth inhibition” value is reported as inactive: 2.48%.
For `COCCNC(=O)C1CCCN(S(=O)(=O)c2ccc3c(c2)CC(C)N3C(=O)C2CC2)C1` (stereo not given), the Potency was inconclusive: 18.4 µM [inhibitor, single point].
For `O=C(Nc1sc2c(c1C(=O)c1ccc(Cl)cc1)CCCC2)c1cccnc1`, the Potency was inconclusive: 20.6 µM [inhibitor, single point].
For `O=C(COC(=O)c1cc(S(=O)(=O)N2CCCCC2)ccc1N1CCOCC1)c1ccccc1`, the Potency was inconclusive: 29.1 µM [inhibitor, single point].
With `O=C(CNC(=O)c1ccccc1)OCC(=O)c1ccccc1` the Potency was inconclusive: 35.5 µM [inhibitor, single point].
With `Cc1cc2c(cc1C)-c1c(ssc1=Nc1ccc(S(N)(=O)=O)cc1)C(C)(C)N2` the Potency was active: 16.4 µM.
For `CC(C)n1cnc2c(NCc3ccccc3)nc(NCc3ccccc3)nc21`, the Potency was inconclusive: 29.1 µM [inhibitor, single point].
For `COCCCNc1nc2c(c(=O)n(Cc3ccccc3)c(=O)n2C)n1C`, the “activity change, negative = growth inhibition” value was inactive: -20.8%.
For `CCCCS(=O)(=O)N1CCCC(C(=O)Oc2ccc(Cl)cc2)C1` (stereo not given), the “activity change, negative = growth inhibition” value was inactive: -15.3%.
For `CN(CC(=O)Nc1ccccc1N1CCCC1)S(=O)(=O)c1ccc(F)cc1`, the Potency was inconclusive: 14.6 µM [inhibitor, single point].
With `Cc1ccc(OCc2ccc(C(=O)Nc3ccc(C(N)=O)cc3)o2)c([N+](=O)[O-])c1` the Potency was inconclusive: 16.4 µM [inhibitor, single point].
In the case of `CCOC(=O)/C(=C/c1ccc(OC(=O)c2ccccc2)cc1)C(C)=O`, the Potency is reported as inconclusive: 20.6 µM [inhibitor, single point].
In the case of `Cc1cccc(-n2c(=O)[nH]c3c(C(N)=O)nc(C(C)C)nc32)c1`, the activity change, negative = growth inhibition is reported as inconclusive: -33.3% [inhibitor].
For `C[C@@H]1[C@H]2[C@@H](O[C@@H]3O[C@H](CO)[C@@H](O)[C@H](O)[C@H]3O)OC=C(C(=O)O)[C@H]2C[C@@H]1O`, the Potency was active: 7.31 µM.
